The source of these data is PubChem BioAssay AID1963576 (National Center for Advancing Translational Sciences (NCATS), 2024).

In all, about 46,000 compounds went through this assay and about 60 (0.1%) were called active. Not shown: some 3% with an inconclusive outcome. The call rests on the fitted dose curve; in most records, active means well fitted inhibition curve with a large enough effect; inconclusive means small, poorly fitted or top-dose-only effect; inactive means no such curve, though single readings can be large or run the other way. Some of the results follow.

The nature of the test: Primary qHTS assay for Inhibitors of ovarian cancer metastasis using an organotypic tumor microenvironment (TME) model. Further: nearly all actives have a fitted effect of over 65% in size.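 On activity change, negative = inhibition: plate controls were DMSO wells for no effect and tomatine positive control wells for full effect.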 Conditions: SKOV3ip1-GFP adhesion/invasion on 3D omental model, fluorescence; series mostly up to 45.8 µM; activity change, negative = inhibition: at the top concentration. A digest of the protocol:
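Adhesion/invasion was scored as fixed GFP-labeled SKOV3ip1 cell counts (488/509 nm), normalized to DMSO and tomatine controls. Cancer cells in serum-free medium, with four compound doses (0.36-46 umol/L), sat 2 hr at RT then 16 hr at 37 C on a 48 hr fibroblast/mesothelial/ECM culture.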
For orientation: Quantitative high-throughput screening tests each substance at several concentrations.
As for `CCOC(=O)C1CCC(CN(Cc2ccc(Cl)cc2)S(=O)(=O)c2cc(Cl)cc(Cl)c2)CC1` (configuration not stated), the “activity change, negative = inhibition” value was inactive: -15.3%. As to `COc1cccc(NS(=O)(=O)c2ccc3c(c2)[C@H]2C=CC[C@H]2[C@@H](c2ccccc2Cl)N3)c1`, the “activity change, negative = inhibition” value was inactive: -34.5%. Consider `COc1cccc(CNC(=O)Cc2ccc(NC(=O)N3CCSc4ncccc43)cc2)c1OC`, for which the “activity change, negative = inhibition” value was inactive: -9.5%. The same measure, in the same setting: the same measure for `CCOc1ccccc1NC(=O)CCn1cnnn1`: inactive: 9.71%; for `CCN(CC)CCNC(=O)CSc1nc2nc(C)c(Cc3ccccc3)c(C)n2n1`: inactive: 10.5%. On to `Cc1cccn2c(Nc3ccccc3)c(-c3cccs3)nc12`, for which the call was inactive. Consider `Cc1ccc(NC(=O)C2CCN(S(=O)(=O)c3ccc4[nH]c(=O)ccc4c3)CC2)cc1C`, for which the “activity change, negative = inhibition” value is inactive: -7.76%. Consider `Cc1ccccc1CNc1nc(N(C)C)nc2c1cnn2C`, for which the “activity change, negative = inhibition” value is inactive: 4.34%. Same read-out and setting: then `O=C1COc2cc(S(=O)(=O)CCC(=O)N3CCN(c4ccccc4F)CC3)c(Cl)cc2N1`, with inactive: 4.8%. For `CCc1ccccc1NCc1nnc2n1CCCCC2`, the “activity change, negative = inhibition” value was inactive: -3.23%. On to `Cn1c(=NC(=O)c2ccc(S(=O)(=O)N3CCCC3)cc2)sc2cc(F)ccc21`, for which the “activity change, negative = inhibition” value was inactive: 3.9%. `CCCc1cc(N2CCN(c3ccccc3)CC2)n2cnnc2n1`: the “activity change, negative = inhibition” value is inactive: -1.66%. With `CCc1ccc(CN(Cc2ccco2)c2cnc(S(C)(=O)=O)nc2C(=O)Nc2c(C)cccc2C)cc1`, the “activity change, negative = inhibition” value was inactive: 2.16%. On to `CCc1cccc(CC)c1NC(=O)Cn1c(=O)c(-c2cc(C)ccc2NC(C)=O)nc2ccccc21`, for which the molecule was called inactive. Turning to `CCOc1ccc(CCNC(=O)Cn2c(-c3cccs3)cc3cc(F)ccc32)cc1OCC`, the “activity change, negative = inhibition” value is inactive: 7.69%. Same read-out and setting: the same measure for `Cc1nc2nc(NC(=O)c3ccc(C(C)(C)C)cc3)[nH]n2c(=O)c1Cl`: inactive: -2.39%; for `Cc1oc(-c2ccccc2F)nc1CSCC(=O)N1CCN(c2ccccc2)CC1`: inactive: -2.22%. On to `COc1cccc(N(Cc2nnc3n2CCCCC3)C(=O)Nc2ccccc2)c1`, for which the outcome was inactive. Turning to `COc1cccc(CN2CCCN(CC(=O)Nc3ccc4c(c3)OCCO4)S2(=O)=O)c1`, the “activity change, negative = inhibition” value is inactive: 2.98%. As to `CCOc1ccccc1NC(=O)C1CCN(S(=O)(=O)c2cc(Br)cc3c2N(C(C)=O)CC3)CC1`, the “activity change, negative = inhibition” value is inactive: -7.58%. On to `Cc1cccc(N2CCN(S(=O)(=O)c3ccc4c(c3)C(C(C)C)C(=O)N4)CC2)c1C` (configuration not stated), for which the result was inactive. Still for that read-out and setting: the same measure for `Cc1ccc(-c2nnc(SCC(=O)c3ccc(Cl)cc3)n2-c2ccccc2)cc1`: “inactive”.

As for `COc1ccc(N2CCN(C(=O)CSc3c4c(nc5ccc(Cl)cc35)CCCC4)CC2)cc1`, the “activity change, negative = inhibition” value is inactive: -30.5%. For `O=C(Nc1cccc(O)c1)c1cc2nc(-c3ccc(Br)cc3)cc(C(F)(F)F)n2n1`, the “activity change, negative = inhibition” value is inactive: 1.88%.

As to `CCOc1ccc(CNC(=O)c2ccc3c(c2)N(CC)CCS3)cc1`, the “activity change, negative = inhibition” value is inactive: -6.69%. Take `CCCCOc1ccc(C(=O)NCCc2sc(-c3ccc(OC)c(OC)c3)nc2C)cc1`: the molecule was classed as inactive. The same measure, in the same setting: the same measure for `COc1cc(NC(=O)CC2C(=O)N(c3cccc(C)c3)C(=O)N2Cc2ccco2)cc(OC)c1` (configuration not stated): “inactive”; for `Cc1ccc(-n2nc3c(=O)n(CC(=O)NC(C)C)nc(C)c3c2C)cc1`: “inactive”. For the molecule `COc1ccc(S(=O)(=O)c2c(Nc3c(C)cccc3C)sc(C(=O)c3ccc4c(c3)OCO4)c2N)cc1`, the “activity change, negative = inhibition” value was inactive: 0.204%. Consider `COc1ccc(CN(C)c2ccc(-c3nc(-c4ccccc4)no3)cc2[N+](=O)[O-])cc1`, for which the “activity change, negative = inhibition” value is inactive: -9.35%. In the case of `O=C(Nc1ccc2oc(-c3cccnc3)nc2c1)c1ccc(-c2cccc(Cl)c2)o1`, the “activity change, negative = inhibition” value is inactive: -16.4%.

Turning to `COc1cccc(CCNC(=O)c2cnc3sc(N4CCCCCC4)nn3c2=O)c1`, the “activity change, negative = inhibition” value is inactive: 5.79%. `Cc1cccc(Nc2ncc(NC(=O)c3cccc(F)c3)c(Nc3cccc(C)c3)n2)c1`: the “activity change, negative = inhibition” value was inactive: -4.35%. Consider `CS(=O)(=O)c1ncc(Cl)c(C(=O)Nc2c(C(=O)Nc3ccccc3)oc3ccccc23)n1`, for which the “activity change, negative = inhibition” value was inactive: -5.96%.

In the case of `COc1ccc2c(CC(=O)Nc3ccc(C)cc3)coc2c1`, the “activity change, negative = inhibition” value was inactive: 5.02%. Consider `CCC(CC)C(=O)Nc1ccc2nc(SCc3ccccc3)sc2c1`, for which the result was inactive. Consider `CCN(C(=O)CSc1nnc(-c2cc(OC)c(OC)c(OC)c2)o1)c1ccccc1`, for which the “activity change, negative = inhibition” value was inactive: 7.01%.

Turning to `Clc1ccc(CCNc2nc3ccccc3c3nc(-c4ccccc4)nn23)cc1`, the “activity change, negative = inhibition” value is inactive: -4.57%.

On to `O=C(CSc1nnc(-c2ccncc2)n1-c1ccccc1)Nc1ccc(Cl)c(Cl)c1`, for which the “activity change, negative = inhibition” value is inactive: -2.47%. Same read-out and setting: the same measure for `COc1ccc(NC(=O)CSC2=Nc3ccccc3C3=NC(CC(=O)NCc4ccco4)C(=O)N23)cc1` (configuration not stated): inactive: 7.65%.

Regarding `CCOc1cccc(CC(=O)NCc2ccc3c(c2)CCN3C(=O)c2ccc(F)cc2)c1OCC`, the “activity change, negative = inhibition” value was inactive: 4.85%. Same read-out and setting: the same measure for `CCOc1ccc(NC(=O)Cn2cc(C(=O)c3cccs3)c3ccccc32)cc1`: inactive: -11.7%; for `CCOc1cc(CNC(=O)c2ccccc2NC(=O)c2nsc3ccccc23)ccc1OC`: inactive: 0.532%. On to `Cc1ccc(C(=O)N(Cc2ccco2)Cc2ccco2)cc1`, for which the result was inactive. Still for that read-out and setting: then `C=CCc1c(C)nc2nc(SCC(=O)Nc3ccccc3CC)nn2c1C`, with “inactive”. Consider `CCOc1ccc(CCNC(=O)CN2CCN(Cc3ccc(F)cc3Cl)C2=O)cc1OCC`, for which the “activity change, negative = inhibition” value is inactive: 6.46%. Regarding `CCCn1c(=O)n(-c2ccccc2)c(=O)c2sc3ccccc3c21`, the outcome was inactive.
